Measured values from a collection of fitness landscapes (doi:10.1016/j.celrep.2020.107928).
Whole data set: some 81,000 sequences, median “one-hybrid fitness for binding NBS DNA” near -0.1, cut for the highest 2% near 0.36. This is one part of the list.

B1: Caulobacter ParB omega fusion; a variant is named by its letters at X, in order, B8GW30 (parent)
chain: MESVVVGEPGMSEGRRGLGRGLSALLGEVDAAPAQAPGEQLGGSREAPIEILQRNPDQPRRTFREEDLEDLSNSIREKGVLQPILVRPSPDTAGEYQIVAGERAWRAAQRAGLKTVPIMVRELDDLAVLEIGIIENVQRADLNVLEEALSYKVLMEKFERTQENIAQTIGKSXSHVANXMRLLXLPDEVQSYLVSGELTAXHARAIAAAADPVALAKQIIEGGLSVRETEALARKAPNLSAGKSKGGRPPRVKDTDTQALESDLSSVLGLDVSIDHRGSTGTLTITYATLEQLDDLCNRLTRGI

Variants of: B1
Assay: one-hybrid fitness for binding NBS DNA (the Noc-binding site; scaled: cognate 1, non-cognate 0); higher = stronger binding
Details: with NBS DNA site
How it was run: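 Fitness is the rescaled log change in variant-to-wild-type read ratio, measured by Illumina sequencing of plasmids before and after bacterial one-hybrid selection. The scale puts cognate at 1 and non-cognate at 0. Selection of Caulobacter ParB libraries, four specificity codons randomised, took place in E. coli USO with a HIS3 reporter, site 19 bp from the promoter, over 48 hours at 37°C on M9-minus-histidine with 0.1 mM IPTG and 5 mM 3-AT.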
ALTA was tested, and the “one-hybrid fitness for binding NBS DNA” value was ≤ 0.2.
VMTK was tested, and the “one-hybrid fitness for binding NBS DNA” value was ≤ 0.2.
In the case of PEDL, the “one-hybrid fitness for binding NBS DNA” value is reported as ≤ 0.2.
In the case of GSKM, the “one-hybrid fitness for binding NBS DNA” value is reported as ≤ 0.2.
For PFGN, the “one-hybrid fitness for binding NBS DNA” value was ≤ 0.2.
For TYSE, the “one-hybrid fitness for binding NBS DNA” value was ≤ 0.2.
In the case of DSVI, the “one-hybrid fitness for binding NBS DNA” value is reported as ≤ 0.2.
For NWPT, the “one-hybrid fitness for binding NBS DNA” value was ≤ 0.2.
In the case of AYYC, the “one-hybrid fitness for binding NBS DNA” value is reported as ≤ 0.2.
In the case of FDSG, the “one-hybrid fitness for binding NBS DNA” value is reported as ≤ 0.2.
For GNVT, the “one-hybrid fitness for binding NBS DNA” value was ≤ 0.2.
PTDE was tested, and the “one-hybrid fitness for binding NBS DNA” value was ≤ 0.2.
QRHP was tested, and the “one-hybrid fitness for binding NBS DNA” value was 0.303.
In the case of ANVP, the “one-hybrid fitness for binding NBS DNA” value is reported as ≤ 0.2.
LYFK was tested, and the “one-hybrid fitness for binding NBS DNA” value was ≤ 0.2.
For QALE, the “one-hybrid fitness for binding NBS DNA” value was ≤ 0.2.
DFMG was tested, and the “one-hybrid fitness for binding NBS DNA” value was ≤ 0.2.
In the case of LVTT, the “one-hybrid fitness for binding NBS DNA” value is reported as ≤ 0.2.
In the case of PFVC, the “one-hybrid fitness for binding NBS DNA” value is reported as ≤ 0.2.
In the case of GWRS, the “one-hybrid fitness for binding NBS DNA” value is reported as ≤ 0.2.
PGWC was tested, and the “one-hybrid fitness for binding NBS DNA” value was ≤ 0.2.
For RHLV, the “one-hybrid fitness for binding NBS DNA” value was ≤ 0.2.
MPEN was tested, and the “one-hybrid fitness for binding NBS DNA” value was ≤ 0.2.
In the case of PHPL, the “one-hybrid fitness for binding NBS DNA” value is reported as ≤ 0.2.
NTVQ was tested, and the “one-hybrid fitness for binding NBS DNA” value was ≤ 0.2.
VYQC was tested, and the “one-hybrid fitness for binding NBS DNA” value was ≤ 0.2.
TMKL was tested, and the “one-hybrid fitness for binding NBS DNA” value was ≤ 0.2.
MVTN was tested, and the “one-hybrid fitness for binding NBS DNA” value was ≤ 0.2.
DGKL was tested, and the “one-hybrid fitness for binding NBS DNA” value was ≤ 0.2.
For CTRT, the “one-hybrid fitness for binding NBS DNA” value was ≤ 0.2.
In the case of SPNA, the “one-hybrid fitness for binding NBS DNA” value is reported as ≤ 0.2.
For GRLD, the “one-hybrid fitness for binding NBS DNA” value was ≤ 0.2.
NGEK was tested, and the “one-hybrid fitness for binding NBS DNA” value was ≤ 0.2.
With RSIK the “one-hybrid fitness for binding NBS DNA” value was ≤ 0.2.
For SVAR, the “one-hybrid fitness for binding NBS DNA” value was ≤ 0.2.
For AYEG, the “one-hybrid fitness for binding NBS DNA” value was ≤ 0.2.
For ILKF, the “one-hybrid fitness for binding NBS DNA” value was ≤ 0.2.
RFWN was tested, and the “one-hybrid fitness for binding NBS DNA” value was ≤ 0.2.
PHHF was tested, and the “one-hybrid fitness for binding NBS DNA” value was ≤ 0.2.
In the case of LCNT, the “one-hybrid fitness for binding NBS DNA” value is reported as ≤ 0.2.
With PPDK the “one-hybrid fitness for binding NBS DNA” value was ≤ 0.2.
For AYFS, the “one-hybrid fitness for binding NBS DNA” value was ≤ 0.2.
In the case of KKTP, the “one-hybrid fitness for binding NBS DNA” value is reported as ≤ 0.2.
YWTD was tested, and the “one-hybrid fitness for binding NBS DNA” value was ≤ 0.2.
With TWHG the “one-hybrid fitness for binding NBS DNA” value was ≤ 0.2.
For QMEA, the “one-hybrid fitness for binding NBS DNA” value was ≤ 0.2.
With SRKP the “one-hybrid fitness for binding NBS DNA” value was ≤ 0.2.
In the case of PLTQ, the “one-hybrid fitness for binding NBS DNA” value is reported as ≤ 0.2.
RTAL was tested, and the “one-hybrid fitness for binding NBS DNA” value was ≤ 0.2.
With PNHG the “one-hybrid fitness for binding NBS DNA” value was ≤ 0.2.
ERQE was tested, and the “one-hybrid fitness for binding NBS DNA” value was ≤ 0.2.
With PLNR the “one-hybrid fitness for binding NBS DNA” value was ≤ 0.2.
With ENQC the “one-hybrid fitness for binding NBS DNA” value was ≤ 0.2.
In the case of PMPK, the “one-hybrid fitness for binding NBS DNA” value is reported as ≤ 0.2.
With THHD the “one-hybrid fitness for binding NBS DNA” value was ≤ 0.2.
For DYLS, the “one-hybrid fitness for binding NBS DNA” value was ≤ 0.2.
In the case of APGG, the “one-hybrid fitness for binding NBS DNA” value is reported as ≤ 0.2.
For PTFP, the “one-hybrid fitness for binding NBS DNA” value was ≤ 0.2.
In the case of SNHV, the “one-hybrid fitness for binding NBS DNA” value is reported as ≤ 0.2.
In the case of DRFS, the “one-hybrid fitness for binding NBS DNA” value is reported as ≤ 0.2.
With QRTC the “one-hybrid fitness for binding NBS DNA” value was 0.395.
With FPDR the “one-hybrid fitness for binding NBS DNA” value was ≤ 0.2.
In the case of IRKP, the “one-hybrid fitness for binding NBS DNA” value is reported as ≤ 0.2.
In the case of IYLL, the “one-hybrid fitness for binding NBS DNA” value is reported as ≤ 0.2.
For KKKY, the “one-hybrid fitness for binding NBS DNA” value was ≤ 0.2.
KIMS was tested, and the “one-hybrid fitness for binding NBS DNA” value was ≤ 0.2.
VQHM was tested, and the “one-hybrid fitness for binding NBS DNA” value was ≤ 0.2.
With SRKM the “one-hybrid fitness for binding NBS DNA” value was ≤ 0.2.
In the case of SRLA, the “one-hybrid fitness for binding NBS DNA” value is reported as ≤ 0.2.
In the case of YCES, the “one-hybrid fitness for binding NBS DNA” value is reported as ≤ 0.2.
VRNP was tested, and the “one-hybrid fitness for binding NBS DNA” value was ≤ 0.2.
In the case of TRNY, the “one-hybrid fitness for binding NBS DNA” value is reported as ≤ 0.2.
For SQDT, the “one-hybrid fitness for binding NBS DNA” value was ≤ 0.2.
In the case of CLTV, the “one-hybrid fitness for binding NBS DNA” value is reported as ≤ 0.2.
For QITN, the “one-hybrid fitness for binding NBS DNA” value was ≤ 0.2.
SMAV was tested, and the “one-hybrid fitness for binding NBS DNA” value was ≤ 0.2.
HRVT was tested, and the “one-hybrid fitness for binding NBS DNA” value was ≤ 0.2.
For PFYG, the “one-hybrid fitness for binding NBS DNA” value was ≤ 0.2.
For RLRA, the “one-hybrid fitness for binding NBS DNA” value was 0.295.
With QAEE the “one-hybrid fitness for binding NBS DNA” value was ≤ 0.2.
INSY was tested, and the “one-hybrid fitness for binding NBS DNA” value was ≤ 0.2.
RNFW was tested, and the “one-hybrid fitness for binding NBS DNA” value was ≤ 0.2.
In the case of ILYL, the “one-hybrid fitness for binding NBS DNA” value is reported as ≤ 0.2.
In the case of SSLC, the “one-hybrid fitness for binding NBS DNA” value is reported as ≤ 0.2.
With RAWC the “one-hybrid fitness for binding NBS DNA” value was ≤ 0.2.
For NKLT, the “one-hybrid fitness for binding NBS DNA” value was ≤ 0.2.
In the case of ARCS, the “one-hybrid fitness for binding NBS DNA” value is reported as ≤ 0.2.
YPEC was tested, and the “one-hybrid fitness for binding NBS DNA” value was ≤ 0.2.
For PNVM, the “one-hybrid fitness for binding NBS DNA” value was ≤ 0.2.
VLFC was tested, and the “one-hybrid fitness for binding NBS DNA” value was ≤ 0.2.
With RTAA the “one-hybrid fitness for binding NBS DNA” value was 0.245.
With TCNI the “one-hybrid fitness for binding NBS DNA” value was ≤ 0.2.
With ATHD the “one-hybrid fitness for binding NBS DNA” value was ≤ 0.2.
For QTEY, the “one-hybrid fitness for binding NBS DNA” value was ≤ 0.2.
For RNTG, the “one-hybrid fitness for binding NBS DNA” value was ≤ 0.2.
With EFTN the “one-hybrid fitness for binding NBS DNA” value was 0.392.
QCVG was tested, and the “one-hybrid fitness for binding NBS DNA” value was ≤ 0.2.
